From PubChem BioAssay AID463173 (ICCB-Longwood Screening Facility, Harvard Medical School, 2010) come the findings set out here.

In all, about 52,000 compounds went through this assay and about 1,700 (3.3%) were called active. No stated cut-off is given here; in the data, active means survival mostly below about 52% (no sharp cut-off); inactive means mostly above about 56%. The list shows a part of the results.

In this assay the test system is Wild type. The experiment in a line: growth inhibition of S. aureus wild type versus tarO mutant, primary screen, teichoic acid synthesis inhibitors, RN4220, OD600 (AID 463173). The note with it: S. aureus RN4220 wild type/DeltatarO growth, OD600, 18 h, active compounds read low, screened at 18.75 µg/mL (by protocol).
As for `COc1cccc(-c2nc(CS(=O)(=O)CC(=O)N3CCN(c4cc(C)ccc4C)CC3)c(C)o2)c1`, the survival is inactive: 65%.
In the case of `CC1CCN(CC(=O)Nc2ccc(S(=O)(=O)N3CCCCC3)cc2)CC1` it was inactive: 101%.
Regarding `CCOC(=O)c1ccc(CN(Cc2ccc(F)cc2)S(=O)(=O)c2ccc(F)c(C(=O)Nc3c(C)cccc3C)c2)cc1`, the survival is inactive: 78%.
For the molecule `COc1ccc(OC)c(C2CC(=O)Nc3c2c(=O)[nH]c2ncnn32)c1` (centres undefined), the survival is inactive: 87%.
To `COc1ccc(C2NC(=O)N(C)C3=C2C(=O)N(c2ccc(C(=O)O)cc2)C3)cc1` (centres undefined) belongs inactive: 72%; to `CCc1ccc2occ(CC(=O)Nc3c(C(=O)c4ccc(C)cc4)oc4ccccc34)c2c1`, inactive: 87%.
With `Cn1c(C(=O)Nc2ccccc2)cc2sccc21`, the survival was inactive: 148%.
For the molecule `CCOc1ccc(NC(=O)Cn2c(=O)n(CCCCCC(=O)NCc3ccccc3)c(=O)c3sccc32)cc1`, the survival was inactive: 85%.
Regarding `Cc1ccc2c(CNCc3ccc(C)o3)c(C(=O)O)n(Cc3ccccc3C)c2c1`, the survival is inactive: 55%.
To `COc1ccc(S(=O)(=O)Nc2c(C)nc3nc[nH]n3c2=O)cc1` belongs inactive: 129%.
To `Cc1cc(C)nc(N(C#N)Cc2ccccc2)n1` belongs inactive: 106%.
On to `Cc1cc(S(=O)(=O)C(CNC(=O)c2ccc(F)c(F)c2)c2cccs2)ccc1F` (centres undefined), for which the survival is inactive: 71%.
With `Cc1cc(C)c2c(CC(=O)Nc3ccc(S(=O)(=O)Nc4nc(C)cc(C)n4)cc3)coc2c1`, the survival was inactive: 77%.
To `COc1ccc(CNC(=O)c2cc3cc(OC)ccc3oc2=O)cc1` belongs inactive: 88%; to `CC(=O)N1CCCc2cc(S(=O)(=O)N3CCCC(C(=O)N4CCN(c5ccccc5)CC4)C3)ccc21` (centres undefined), inactive: 70%; to `Cc1ccc(S(=O)(=O)n2nc(-c3ccc(Cl)cc3)nc2NCc2ccc(F)cc2)cc1`, inactive: 74%.
To `Cc1ccc(-c2ccc(=O)n(CC(=O)NCCc3ccccc3)n2)cc1` belongs inactive: 65%; to `O=S(=O)(NCCc1csc2nc(-c3ccccc3)nn12)c1cc(F)ccc1F`, inactive: 64%.
To `COc1ccc2c(c1)cc1c(=O)n(CC(=O)NC(C)CCc3ccccc3)nc(C)n12` (centres undefined) belongs inactive: 131%.
With `CCCCn1cnc2cc(NCc3ccccc3Cl)ccc21`, the survival was active: -16%.
In the case of `COc1ccc(-c2[nH]c(-c3ccc(Cl)cc3)nc2SCC(=O)NCC2CCCO2)cc1` (centres undefined) it was inactive: 68%; in that of `Cc1ccc(NC(=O)C(=O)NCC(c2cccnc2)N2CCN(Cc3ccccc3)CC2)cc1F` (centres undefined), inactive: 84%.
To `COC(=O)CSc1nc(C(C)(C)C)cc(C(F)(F)F)n1` belongs inactive: 112%; to `CCCSCCCNC(=O)C1CCN(c2nc3ccccc3nc2C(F)(F)F)CC1`, active: -3%.
To `Cc1ccc(-n2ncc3c(Nc4cccc(C(=O)O)c4)ncnc32)cc1` belongs inactive: 67%; to `CC(Sc1ccccn1)C(=O)Nc1ccccc1` (centres undefined), inactive: 110%.
With `Cc1oc(-c2ccc(C(=O)NCc3ccccc3)cc2)nc1CN1CCc2ccccc21`, the survival is inactive: 80%.
In the case of `COc1ccc(-c2nc3ccccc3s2)cc1NC(=O)c1ccccc1F` it was inactive: 138%.
In the case of `O=C(Cc1cccs1)NC1CC(=O)N(c2ccc(F)cc2)C1` (centres undefined) it was inactive: 95%.
With `CSc1cccc(NC(=O)Nc2ccccc2OCc2cc(=O)n3cc(C)ccc3n2)c1`, the survival is inactive: 81%.
For the molecule `CCOCCCNC(=O)c1ccc(-n2c(-c3ccccc3)cc3c2CCC(C)C3)cc1` (centres undefined), the survival is inactive: 123%.
To `COc1ccc(-c2csc3ncnc(Nc4cccc(OC)c4)c23)cc1` belongs inactive: 73%.
With `CC(C)(C)NC(=O)c1c(N)no[n+]1[O-]`, the survival was inactive: 93%.
In the case of `Cc1ccc2c(c1)C(c1ccc(F)cc1)N(C(=O)c1ccc(S(=O)(=O)N3CCCCC3)cc1)CC(=O)N2` (centres undefined) it was inactive: 148%; in that of `COc1ccc(C(=O)Nc2ccc3nc(SCC(=O)N4CCc5ccccc54)sc3c2)cc1`, inactive: 69%.
To `CCC(=O)N1CCc2cc(Br)cc(S(=O)(=O)CCC(=O)N3CCN(c4cccc(C)c4)C(C)C3)c21` (centres undefined) belongs inactive: 72%.
On to `CCc1ccc(S(=O)(=O)Nc2ccc3c(c2)n(C)c(=O)c(=O)n3C)cc1`, for which the survival is inactive: 71%.
In the case of `COc1ccc(NC(=O)CCNS(=O)(=O)c2ccc3c(c2)CCCC(=O)N3)cc1Cl` it was inactive: 133%; in that of `O=C(NCc1ccc(Cl)cc1)NCc1noc2ccccc12`, inactive: 86%; in that of `Oc1cccc(N=Cc2sc(=S)n(C3CCCCC3)c2O)c1`, inactive: 135%.
In the case of `COc1ccc(-n2nc3cc(C)c(NC(=O)c4ccc(-c5ccc(Cl)cc5)o4)cc3n2)cc1` it was inactive: 78%; in that of `Cc1cc(OCC(=O)Nc2cc(-c3nc4ncccc4o3)ccc2C)ccc1Cl`, inactive: 88%.
To `COC(=O)c1ccccc1NC(=O)C1=CC(c2cccs2)=NS(=O)(=O)N1C` belongs inactive: 81%.
As for `CCOc1ccc2nc(N3CCCC(C(=O)NCCc4ccc(OCC)c(OCC)c4)C3)sc2c1` (centres undefined), the survival was inactive: 71%.
For the molecule `Cc1cccc(C)c1Nc1c(-c2ccccn2)nc2c(C)cccn12`, the survival was inactive: 77%.
In the case of `Cc1nn(CC(=O)Nc2ccc(OC(F)(F)F)cc2)c(=O)c2c(C)n(-c3ccc(Cl)cc3)nc12` it was inactive: 19%; in that of `CC1CCCN(S(=O)(=O)Cc2ccccc2)C1` (centres undefined), inactive: 105%; in that of `COc1ccc(OCc2ccc(-c3nc(C#N)c(NC(C)c4ccccc4)o3)o2)cc1` (centres undefined), inactive: 92%.
In the case of `Cc1ccc2c(=O)cc(-c3cccc(F)c3)oc2c1` it was inactive: 128%; in that of `COc1ccc(CCNC(=O)c2nc(-c3ccc(Cl)cc3)n3c2CCCCC3)c(OC)c1`, inactive: 74%; in that of `NCCCC(=O)OC1CCCCC1`, inactive: 104%.
Consider `COc1ccc(N(Cc2cc3cccc(C)c3[nH]c2=O)C(=O)c2cccc(Cl)c2)cc1`, for which the survival is inactive: 86%.
In the case of `CCc1cccc(-n2c(=O)c3cccnc3n2CC(=O)Nc2c(C)cc(C)cc2C)c1` it was inactive: 64%.
In the case of `COc1cc(S(=O)(=O)NCCc2c(C)[nH]c3ccccc23)c(C)cc1C` it was inactive: 50%; in that of `COc1ccc2nc(N(Cc3cccnc3)C(=O)Cc3ccccc3)sc2c1`, inactive: 125%; in that of `Nc1nc(-c2ccccc2)nn1C(=O)c1cccs1`, inactive: 104%.
For `CC(=O)N1CCc2cc(S(=O)(=O)C(C)CC(=O)Nc3ccc(Br)c(C)c3)ccc21` (centres undefined), the survival was active: -6%.
In the case of `CN(C)S(=O)(=O)c1ccc(C(=O)NCCSc2c(-c3ccccc3)[nH]c3ccccc23)cc1` it was inactive: 72%.
In the case of `On1c2c(c3c4nonc4ccc31)CCCC2` it was active: 8%; in that of `CC(=O)Nc1ccc(S(=O)(=O)NC2=NCN(CCO)CN2)cc1`, inactive: 92%; in that of `Fc1cccc(-c2nnn3c2nc(NC2CCCCC2)c2ccccc23)c1`, inactive: 85%.
Regarding `COc1ccc(NC(=O)C2=C(C)Nc3ncnn3C2c2cccn2C)cc1` (centres undefined), the survival was inactive: 85%.
For the molecule `CC(C)C(c1nnnn1C1CCCC1)N(Cc1ccc(Cl)cc1)CC1CCCO1` (centres undefined), the survival is inactive: 114%.
To `CC1CCN(CC2CCN(C(=O)Nc3ccc(Br)cc3F)CC2)CC1` belongs inactive: 76%.
As to `Cc1cccc(-n2c(CNC(=O)c3cccc(F)c3)nnc2SCC(=O)Nc2ccccc2F)c1`, the survival was inactive: 69%.
In the case of `O=C(C1CCN(S(=O)(=O)Cc2ccccc2)CC1)N1CCN(c2cccc(C(F)(F)F)c2)CC1`, the survival is inactive: 88%.
In the case of `COc1ccccc1CNC(=O)CN1C(=O)COc2ccc(S(=O)(=O)NC3CCCC3)cc21` it was inactive: 80%.
Turning to `CCOC(=O)c1c(NC(=O)c2ccc(S(=O)(=O)N(C)C3CCCCC3)cc2)sc2c1CCN(C(C)C)C2`, the survival is inactive: 66%.
To `Cc1noc(C)c1S(=O)(=O)N(CC(=O)NCCc1ccccc1)c1ccc(C(C)C)cc1` belongs inactive: 129%; to `CCc1ccc(C(=O)NCC2(c3ccccc3)CCOCC2)o1`, inactive: 107%; to `Cc1ccc(Cl)cc1-n1ncc2c(N3CCN(Cc4ccccc4)CC3)ncnc21`, inactive: 120%.
In the case of `CCOCCCN1C(=O)c2ccccc2CC1(C)C(=O)NC1CCCCC1` (centres undefined) it was inactive: 82%; in that of `COc1ccc(CNC(=O)CN2C(=O)CSc3ccc(S(=O)(=O)N4CCC(C)CC4)cc32)cc1`, inactive: 69%.
In the case of `COc1ccc(/C=C/C(=O)Nc2nc(-c3cccs3)ns2)cc1` it was inactive: 58%.
In the case of `CC1CCN(S(=O)(=O)c2nnc(NC(=O)c3cccc(Cl)c3)s2)CC1`, the survival is inactive: 37%.
In the case of `Cc1ccc(CCNc2ncnc3onc(-c4ccc(Cl)cc4)c23)cc1` it was inactive: 66%; in that of `COc1ccc(NC(=O)CSc2nc3c(oc4ccccc43)c(=O)n2Cc2ccco2)cc1Cl`, inactive: 131%.
In the case of `COc1cc(-c2nc(Cn3nnc(C(=O)Nc4cccc(Cl)c4)c3C)c(C)o2)cc(OC)c1OC` it was inactive: 96%; in that of `COc1ccc(CNC(=O)C2CCC(CNS(=O)(=O)c3ccc4c(c3)CCCC(=O)N4)CC2)cc1` (centres undefined), inactive: 68%; in that of `Cc1ccc(-c2cn3c(n2)sc2cc(C(=O)NCCC4=CCCCC4)ccc23)cc1`, inactive: 88%.
In the case of `COc1ccc(-c2nc(S(=O)(=O)c3ccc(Cl)cc3)c(NCc3ccccc3)o2)cc1` it was inactive: 137%; in that of `CCOC(=O)CSc1nc2c(sc3ccccc32)c(=O)n1CCO`, active: -6%; in that of `CCN(CC)CCCNc1ncnc2c1cnn2-c1ccc(C)c(C)c1`, inactive: 77%.
`Cc1csc2nc(COc3cccc(NC(=O)c4ccccc4F)c3)cc(=O)n12`: the survival was inactive: 130%.
Regarding `COc1ccc(OCC(O)Cn2c(NCCO)nc3c2c(=O)n(C)c(=O)n3C)cc1` (centres undefined), the survival was inactive: 67%.
In the case of `Cc1nn(CC(=O)N2CCN(c3ccc(Cl)cc3)CC2)c(=O)c2cccn12` it was inactive: 85%; in that of `O=C(CSC1=Nc2ccccc2N=C(c2ccc(F)cc2)C1)Nc1ccccc1`, inactive: 100%.
Consider `CCOc1ccc(NC(=O)c2c(NC(=O)Cc3ccccc3)sc3c2CCCCC3)cc1`, for which the survival is inactive: 70%.
To `Cc1ccc(-n2c(=O)c3c(c4cc(C)ccc4n3C)n(CC(=O)N3CCCC3)c2=O)cc1` belongs inactive: 70%.
